# Reference: the supplement of paper PMC11283458
# This is one part of the list. Single values are uncertain, as repeats are few or missing.
# Test system: Mast2 alternative exon (endogenous)
# Assay: delta PSI of alternative exon relative to 0.4% DMSO control (RT-PCR) (percentage points); higher = more exon inclusion
# Settings: concentration: not stated (optimised per compound); Neuro-2a
# Description: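 Reads PSI of the Mef2d reporter microexon and of endogenous mouse neural alternative exons. dPSI is relative to the 0.4% DMSO control, single replicate.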
# 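Further: exons read include endogenous Mef2d, Mast2, Ergic3 and Trappc9 microexons plus the longer neural-regulated Zdhhc20, Mgrn1 and Asph cassette exons, alongside the reporter microexon.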
row,Compound,delta PSI of alternative exon
1,CNC(=S)N/N=C/c1ccccc1O,9.91
2,CC1=C(/C=C/C(C)=C/C=C/C(C)=C/C(=O)Nc2ccc(O)cc2)C(C)(C)CCC1 [Fenretinide],13
3,CCCCc1nc2cc(/C=C/C(=O)NO)ccc2n1CCN(CC)CC,13.7
4,COc1ccc(C(=O)C=C(C(=O)c2ccccc2)c2ccccc2)cc1CN1CCOCC1,-5.17
5,O=[N+]([O-])c1ccc(N2CCCN(C(=S)Nc3ccc(Cl)cc3Cl)CC2)nc1,6.72
6,Cc1onc(-c2ccccc2)c1C(=O)Nc1c(C(C)(C)C)nn(C)c1C(C)(C)C,1.3
7,O=S(=O)(N/N=C/c1cc(Cl)cc(Cl)c1O)c1ccc(Cl)cc1,16.7
8,Cc1ccc(S(=O)(=O)N/N=C/c2cc(Cl)ccc2O)cc1,21.2
9,O=C(NCCNc1nccc(C(F)(F)F)n1)Nc1ccccc1Cl,-21.6
10,Cc1cc(NC(=O)Nc2cc(Cl)cc(Cl)c2)on1,2.53
11,O=C(Nc1cccc([N+](=O)[O-])c1)C(C(=O)Nc1cccc([N+](=O)[O-])c1)C12CC3CC(CC(C3)C1)C2,-0.646
12,N#Cc1c(O)nsc1Nc1ccc(Cl)cc1,-2.02
13,CC(=O)OC1(C(=O)/C=C/c2ccccc2)CCCCC1,-3.22
14,O=C(CCCCCN1C(=O)c2cccc3cccc(c23)C1=O)NO [Scriptaid],8.41
15,CCN(CC)C(=S)NC(=S)c1ccc(C)cc1,0.553
16,CC1(c2ccc([N+](=O)[O-])cc2)NN=C(c2ccccc2)S1 (stereo not given),3.55
17,CCN1C(=CC(=S)Nc2ccccc2)Sc2ccccc21,4.31
18,Cn1cc(CNCC2CCN(c3ncc(C(=O)NO)cn3)CC2)c2ccccc21,12.5
19,O=C(C=Cc1cc([N+](=O)[O-])ccc1Sc1ccc(C(F)(F)F)cn1)Nc1ccccc1,1.39
20,N#CC1(C#N)C(C#N)(C#N)C12CCCCC2,-7.43

row,Compound,delta PSI of alternative exon
1,COCCCNC(=S)N/N=C/c1cccc(OC)c1O,11.3
2,O=C(/C=C/c1ccc(CN(CCO)CCc2c[nH]c3ccccc23)cc1)NO,16.9
3,N#Cc1c(-c2cccs2)oc(-n2cccc2)c1-c1cc(Br)cs1,2.52
4,O=C(NCCNc1ccc(C(F)(F)F)cn1)Nc1ccccc1Cl,-26.7
5,O=C(C=C(C(=O)c1ccccc1)c1ccccc1)c1ccc2c(c1)OCCO2,0.307
6,NC(=NOC(=O)c1c(F)cccc1Cl)c1ccc([N+](=O)[O-])o1,-13.3
7,Cc1onc(-c2c(Cl)cccc2Cl)c1C(=O)SCC(=O)Nc1ccc(F)cc1,-7.23
8,CC(/C=C/C(=O)NO)=C\[C@@H](C)C(=O)c1ccc(N(C)C)cc1 [Trichostatin A],-6.41
9,Cc1ccc(S(=O)(=O)Nc2ccc3ncccc3c2)cc1,24.2
10,Nc1ncn(C2OC(CO)C(O)C2O)c(=O)n1 (stereo not given) [Azacytidine-5],-16.3
11,CC1(COc2ccc3c(c2)ncn3-c2ccc3cccc(N4CCC(N)CC4)c3n2)COC1 [Crenolanib],5.57
12,CCN(CC)Cc1ccc2cc(COC(=O)Nc3ccc(C(=O)NO)cc3)ccc2c1 [Givinostat],15.9
13,O=C(Nc1cccc(Cl)c1)Nc1ccc(Sc2ccccc2)nc1Sc1ccccc1,0.596
14,CCCNC(=O)Nc1ccc(OC(F)(F)F)cc1,1.49
15,CC(=O)Nc1ccc([C@H](C)C(=O)Nc2ncc(C(C)C)s2)cc1,-17.9
16,O=C(CCCCCCC(=O)Nc1ccccc1)NO [Vorinostat],17.9
17,O=c1c(Cc2ccccc2Cl)c(-c2ccccc2)oc2ccccc12,1.35
18,CC(=O)Nc1ccc(-c2ccc(NC(C)=O)cc2)cc1,-0.471
19,O=C(Nc1ccc2[nH]nc(-c3ccncc3)c2c1)[C@@H]1CCN(CC(=O)N2CCN(c3ccc(-c4ncccn4)cc3)CC2)C1,4.11
20,O=C(C=c1[nH]c(=O)c(=Cc2ccccc2O)s1)c1cccs1,-8.36
